Measured values taken from PubChem BioAssay (Tox21).
Values joined by “and” are separate entries in the source; they are usually repeats but may differ in a detail not shown here. Identical values can stand only once. This list was built around the results that the source calls inconclusive (neither active nor inactive); the mix of calls is not that of the screen. Where the call is inconclusive, the potency comes from a doubtful curve fit. Where a structure was tested more than once in an assay, its records may differ in their call. Active and inactive are the calls of the source. Unless noted, the call rests on the fitted dose curve; in most records, active means well fitted curve in the direction sought with a large enough effect in the repeat runs; inconclusive means weak or mixed curves; inactive means no such curve, though single readings can be large; an effect the other way counts as inactive or inconclusive.

Assays:
[1] = target: Progesterone receptor (Homo sapiens) (UniProt P06401); assay: qHTS assay to identify small molecule agonists of the progesterone receptor (PR) signaling pathway (AID 1346784; calls by dose curve; further: nearly all actives have a fitted effect of over 30% in size; on activation: on the % scale 0 is the no-effect control and ±100 the full control effect); details: PR-UAS-bla HEK293T, beta-lactamase FRET ratio, 16 h; activation: at 92.4 µM (top of the series) unless noted
Chain of UniProt P06401 (P06401 whole entry, looked up): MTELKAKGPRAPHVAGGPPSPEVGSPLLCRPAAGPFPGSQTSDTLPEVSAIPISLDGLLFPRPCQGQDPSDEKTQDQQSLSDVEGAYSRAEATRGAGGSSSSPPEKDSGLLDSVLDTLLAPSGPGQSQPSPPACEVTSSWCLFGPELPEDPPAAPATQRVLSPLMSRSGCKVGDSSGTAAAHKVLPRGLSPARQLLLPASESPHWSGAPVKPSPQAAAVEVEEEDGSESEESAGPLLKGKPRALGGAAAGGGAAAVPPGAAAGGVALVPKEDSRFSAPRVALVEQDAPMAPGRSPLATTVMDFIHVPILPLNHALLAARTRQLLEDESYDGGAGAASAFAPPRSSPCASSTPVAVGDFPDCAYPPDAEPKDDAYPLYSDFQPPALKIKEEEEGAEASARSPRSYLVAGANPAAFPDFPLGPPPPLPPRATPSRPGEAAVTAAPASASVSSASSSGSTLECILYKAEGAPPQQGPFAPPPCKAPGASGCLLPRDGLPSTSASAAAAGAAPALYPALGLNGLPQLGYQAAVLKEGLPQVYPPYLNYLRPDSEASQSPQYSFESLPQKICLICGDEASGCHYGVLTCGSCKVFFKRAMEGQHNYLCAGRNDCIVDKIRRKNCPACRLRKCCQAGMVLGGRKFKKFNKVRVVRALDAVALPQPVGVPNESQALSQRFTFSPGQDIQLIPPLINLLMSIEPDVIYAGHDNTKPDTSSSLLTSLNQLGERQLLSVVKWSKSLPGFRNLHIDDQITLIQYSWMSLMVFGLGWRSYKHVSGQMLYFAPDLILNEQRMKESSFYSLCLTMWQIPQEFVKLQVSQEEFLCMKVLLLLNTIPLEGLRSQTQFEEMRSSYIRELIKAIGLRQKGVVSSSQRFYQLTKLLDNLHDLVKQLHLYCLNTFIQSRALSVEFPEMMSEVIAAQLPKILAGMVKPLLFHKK
Procedure, shortened: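 Seed PR-UAS-bla HEK 293T cells (2% charcoal-stripped FBS), incubate 6 hr at 37C; add compounds in DMSO, 16 hr at 37C; add LiveBLAzer B/G substrate, 2 hr RT; read fluorescence intensity.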

[2] = qHTS assay to identify small molecule antagonists of the progesterone receptor (PR) signaling pathway - cell viability counter screen (AID 1346798); further: nearly all actives have a fitted effect of over 50% in size
Procedure, shortened: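 Measures cytotoxicity in parallel with the PR antagonist reporter read: HEK293T PR-UAS-bla cells get compound and R5020 for 16 hr, and remaining viable cells are quantified by CellTiter-Glo luminescence.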

[3] = qHTS assay to identify small molecule agonists of the TGF-beta/Smad signaling pathway (AID 1346859; active means well fitted activation curve with a large enough effect in the signal ratio in the repeat runs, not every such curve was filed as active; inconclusive means weak or mixed curves; the % refers to the signal ratio); details: SBE-bla HEK293T, TGF-beta/Smad beta-lactamase reporter, 5 h; activation: at 76.8 µM (top of the series)
Procedure, shortened: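 Beta-lactamase reporter activity downstream of Smad binding elements was measured in stably transfected HEK 293T cells; compounds were incubated for 5 hr, substrate for 2 hr at room temperature.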

[4] = target: Thyrotropin-releasing hormone receptor (Homo sapiens) (UniProt P34981); assay: qHTS assay to identify small molecule antagonists of the thyrotropin-releasing hormone receptor (TRHR) signaling pathway (AID 1346877; active means well fitted inhibition curve with a large enough effect in the repeat runs, not every such curve was filed as active; inconclusive means weak or mixed curves; on activity, negative = inhibition: on the % scale 0 is the no-effect control and ±100 the full control effect)
Chain of UniProt P34981 (P34981 whole entry, looked up): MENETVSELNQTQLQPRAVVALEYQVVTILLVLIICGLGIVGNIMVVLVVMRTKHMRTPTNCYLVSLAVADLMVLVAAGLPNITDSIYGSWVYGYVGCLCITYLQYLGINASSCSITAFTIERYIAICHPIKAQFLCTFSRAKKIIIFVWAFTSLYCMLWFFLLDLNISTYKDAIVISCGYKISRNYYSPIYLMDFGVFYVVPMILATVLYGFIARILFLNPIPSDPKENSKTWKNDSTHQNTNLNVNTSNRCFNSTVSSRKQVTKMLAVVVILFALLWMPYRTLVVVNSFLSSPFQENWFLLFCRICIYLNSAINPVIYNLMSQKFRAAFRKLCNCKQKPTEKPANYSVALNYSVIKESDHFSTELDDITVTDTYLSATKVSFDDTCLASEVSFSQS
Procedure, shortened: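 TRHR-expressing HEK293 cells loaded with calcium dye for 2 h at 37 C; compounds pre-incubated 5 min at room temperature before TRH challenge at 1 nM final. Intracellular calcium fluorescence read kinetically for 3 min; 15 concentrations in triplicate.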

[5] = qHTS assay to identify small molecule antagonists of the TGF-beta/Smad signaling pathway (AID 1346924; active means well fitted inhibition curve with a large enough effect in the signal ratio in the repeat runs, not every such curve was filed as active; inconclusive means weak or mixed curves; the % refers to the signal ratio); details: SBE-bla HEK293T, TGF-beta/Smad reporter, beta-lactamase ratio
Procedure, shortened: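 SBE-bla HEK 293T cells were plated overnight, then received compound in DMSO plus TGF-beta1 (added as a 0.25 ng/mL solution) and were incubated 5 h at 37 C. Beta-lactamase reporter activity was read after 2 h at room temperature with LiveBLAzer B/G FRET substrate (ex 405, em 460/530 nm).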

[6] = Human pregnane X receptor (PXR) small molecule agonists, qHTS cell viability counter screen (AID 1346977); further: nearly all actives have a fitted effect of over 50% in size
Procedure, shortened: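 After a 5hr pre-incubation, PXR-Luc HepG2 cells received compounds plus positive control in DMSO and were kept 24hr at 37C. Cell viability was quantified by fluorescence from CellTiter-Fluor added for the final hour.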

[7] = qHTS assay to identify small molecule agonists of the progesterone receptor (PR) signaling pathway - cell viability counter screen (AID 1346799; calls by dose curve; further: nearly all actives have a fitted effect of over 45% in size)
Procedure, shortened: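 Using the same plates as the PR reporter screen, HEK293T PR-UAS-bla cells received compounds for 16 hr at 37C and were then lysed with CellTiter-Glo; luminescence was read 30 min later at room temperature.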

[8] = qHTS assay to identify small molecule antagonists of the TGF-beta/Smad signaling pathway - cell viability counter screen (AID 1346824); further: nearly all actives have a fitted effect of over 50% in size
Procedure, shortened: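 SBE-bla HEK 293T cells were plated overnight at 37 C, then given compounds in DMSO plus TGF-beta1 (added as 0.25 ng/mL solution) for 5 hr. After the bla read, CellTiter-Glo was added to the same wells and luminescence read after 30 min at room temperature.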

[9] = target: Progesterone receptor (Homo sapiens) (UniProt P06401); assay: qHTS assay to identify small molecule antagonists of the progesterone receptor (PR) signaling pathway (AID 1346795; active means well fitted inhibition curve with a large enough effect in the signal ratio in the repeat runs, not every such curve was filed as active; inconclusive means weak or mixed curves; the % refers to the signal ratio; on activity change, negative = inhibition: on the % scale 0 is the no-effect control and ±100 the full control effect); details: PR-UAS-bla HEK293T, beta-lactamase FRET ratio, 16 h; activity change, negative = inhibition: at 92.4 µM (top of the series) unless noted
Procedure, shortened: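 Screening used a GripTite HEK293T line with PR-responsive UAS-beta-lactamase. Cells were challenged with compound in the presence of 1 nM R5020 final for 16 hr at 37C; B/G FRET substrate, 2 hr room temperature, fluorescence.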

[10] = qHTS assay to identify small molecule agonists of the TGF-beta/Smad signaling pathway - cell viability counter screen (AID 1346829); further: nearly all actives have a fitted effect of over 45% in size
Procedure, shortened: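 HEK 293T SBE-bla line, 5 hr compound exposure at 37 C, multiplexed CellTiter-Glo viability read by luminescence.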

[11] = activity, negative = inhibition: at 76.8 µM (top of the series) unless noted
Potency means the concentration at half of the fitted maximal effect; tags describe the fitted curve by direction and shape or compound fluorescence and quenching.

O=C(Nc1ccccc1SSc1ccccc1NC(=O)c1ccccc1)c1ccccc1
Potency [1]: inconclusive: 15.4 µM [cytotoxic] | Potency [2]: inactive | Potency [3]: inconclusive: 12.4 µM [falling, full curve] | Potency [4]: inactive | Potency [5, 11]: inconclusive: 22 µM [cytotoxic, partial curve] and inconclusive: 15.5 µM [cytotoxic, partial curve] | Potency [6]: inconclusive: 48.6 µM [cytotoxic, partial curve, poor fit]

Cc1cc2nc3c(=O)[nH]c(=O)nc-3n(C[C@H](O)[C@H](O)[C@H](O)CO)c2cc1C
Potency [1]: inconclusive: 67.9 µM [rising, single point] | Potency [4]: active: 33.5 µM and active: 19.8 µM | Potency [5, 11]: inconclusive: 48.5 µM [rising, partial curve] and inconclusive: 22.8 µM [rising, partial curve] | Potency [6]: inconclusive: 44.7 µM [rising, partial curve] and inconclusive: 28.4 µM [rising, partial curve] and inconclusive: 14.6 µM [rising, partial curve]

CCN(CC)C(=S)SSC(=S)N(CC)CC
Potency [1]: inconclusive: 6.26 µM [cytotoxic, single point] | Potency [2]: inconclusive: 243 nM [cytotoxic, full curve, poor fit] and inconclusive: 44.3 nM [cytotoxic, full curve, poor fit] and inconclusive: 211 nM [cytotoxic, full curve, poor fit] | Potency [7]: inactive and inconclusive: 140 nM [cytotoxic, full curve, poor fit] and inconclusive: 211 nM [cytotoxic, full curve, poor fit] | Potency [8]: inconclusive: 25.1 µM [cytotoxic, single point] | Potency [4]: inconclusive: 17 µM [inhibitor, partial curve] and inconclusive: 23.2 µM [inhibitor] | Potency [5, 11]: inconclusive: 0.199 µM | activity, negative = inhibition ([5]; at 35.3 µM (top of the series)): inconclusive: 8.05% | activity, negative = inhibition ([5]; at 76.8 µM (top of the series)): inconclusive: -1.32% | Potency [6]: inconclusive: 154 nM [cytotoxic, full curve, poor fit] and inconclusive: 22.2 nM [cytotoxic, full curve, poor fit] and inconclusive: 531 nM [cytotoxic, full curve, poor fit]

CN(C)c1ccc(SC#N)cc1
Potency [9]: inconclusive: 54.5 µM [falling, partial curve]

CC/C(=C(\c1ccccc1)c1ccc(OCCN(C)C)cc1)c1ccccc1
Potency [1]: inactive | Potency [2]: inconclusive: 61.6 µM [cytotoxic] | Potency [10]: inconclusive: 54.9 µM [cytotoxic] [middle of 4 runs] | Potency [3]: inconclusive: 62.1 µM and inconclusive: 55.4 µM [single point] and inconclusive: 61.6 µM | Potency [5, 11]: inconclusive: 62.1 µM [cytotoxic, single point] | activity, negative = inhibition [5, 11]: inconclusive: -22.9% [at 35.3 µM] | Potency [6]: active: 25.1 µM [middle of 5 runs]

O=C(c1ccc(O)cc1)c1ccc(O)cc1O
Potency [9]: active: 19.5 µM and inconclusive: 21.7 µM

CCCCc1oc2ccccc2c1C(=O)c1cc(I)c(OCCN(CC)CC)c(I)c1
activation [1]: inconclusive: -7.95% [at 42.5 µM] | Potency [2]: active: 24.5 µM and active: 11.9 µM | Potency [7]: active: 19.5 µM and active: 13.3 µM | Potency [10]: inconclusive: 44 µM [cytotoxic, single point] and inconclusive: 8.49 µM [cytotoxic, full curve] | Potency [3]: inconclusive: 19 µM [rising, partial curve, poor fit] | Potency [5, 11]: inconclusive: 15.1 µM [fluorescent, partial curve]

O=C(COc1ccc(Cl)cc1)N1CCN(Cc2ccc3c(c2)OCO3)CC1
Potency [9]: active: 54.5 µM | activity change, negative = inhibition [9]: inconclusive: -47.4% [at 42.5 µM] | Potency [7]: inconclusive: 19.3 µM [rising, partial curve] and inconclusive: 11.9 µM [rising, partial curve] | activity, negative = inhibition [5, 11]: inconclusive: -0.818%
